Data as given in PubChem BioAssay AID624296 (National Center for Advancing Translational Sciences (NCATS), 2012).
The campaign covered roughly 350,000 compounds. About 9,900 (2.8%) were called active. The inconclusive results got no clear call from the source; some entries with a clear call stand among them for comparison. The call rests on the fitted dose curve; in most records, active means well fitted activation curve with a large enough effect; inconclusive means small, poorly fitted or top-dose-only effect; inactive means no such curve, though single readings can be large or run the other way. Potencies of inconclusive entries are left out as doubtful fits.

test: A quantitative high throughput screen for small molecules that induce DNA re-replication in MCF 10a normal breast cells.; further: nearly all actives have a fitted effect of over 50% in size; on activity, positive = re-replication: % of control where 0% means no effect; details: MCF 10A DNA re-replication, Hoechst nuclear intensity, 48 h; activity, positive = re-replication: at 46.1 µM (top of the series)
Potency means the concentration at half of the fitted maximal effect; tags describe the fitted curve by direction and shape.

**Q.** With `Cc1[nH][nH]c(=O)c1C(c1ccc(O)c([N+](=O)[O-])c1)c1c(C)[nH][nH]c1=O` as the compound, how does the Potency read?
**A.** The Potency was inconclusive [activator, full curve, poor fit].

**Q.** With `CCOC(=O)c1ccccc1NC(=O)C1CC(=O)N(C(C)(C)C)C1` (stereo not given) as the compound, how does the Potency read?
**A.** The Potency was active: 1.03 µM.

**Q.** Which Potency does the source give for `CCCCNC(=O)NCC(=O)Nc1ccc(F)c(F)c1` here?
**A.** The Potency was inconclusive [activator, single point].

**Q.** For `CC1CCN(C(=O)Cn2c(=O)n(CCCC(=O)NCc3ccco3)c(=O)c3sccc32)CC1`, which Potency is on record?
**A.** Its Potency is inconclusive [activator, single point].

**Q.** Which Potency does the source give for `COc1ccccc1CC(=O)NNS(=O)(=O)c1ccc([N+](=O)[O-])cc1` here?
**A.** The Potency was inconclusive [activator, single point].

**Q.** With `O=C(NN=C1CCCCCCCCCCC1)c1ccccc1F` as the compound, how does the Potency read?
**A.** Its Potency is inconclusive [activator, partial curve, poor fit].

**Q.** With `O=C(Cc1ccccc1)NNC(=O)Nc1ccc(Cl)c(Cl)c1` as the compound, how does the Potency read?
**A.** Its Potency is inconclusive [activator, partial curve, poor fit].

**Q.** With `C=CCC[C@@H](Cc1ccc(F)cc1)C(=O)OC[C@@H](Cc1ccccc1)NC(=O)[C@@H](CC=C)CC(=O)N[C@@H](CO)Cc1ccccc1` as the compound, how does the Potency read?
**A.** The Potency was inconclusive [activator, single point].

**Q.** For `S=C(NCc1ccco1)NC1CCCc2ccccc21` (stereo not given), which “activity, positive = re-replication” value is on record?
**A.** The value was inactive: 5.89%.

**Q.** Which “activity, positive = re-replication” value does the source give for `CC(C)C(C(=O)Nc1ccncc1)c1ccc(Cl)cc1` (stereo not given) here?
**A.** The value was inactive: -0.943%.

**Q.** With `Cc1cc(C)nc(Nc2ncc(O)n2-c2ccccc2)n1` as the compound, how does the Potency read?
**A.** Its Potency is inconclusive [activator, full curve, poor fit].

**Q.** Which Potency does the source give for `CC(C)(C)OC(=O)N1CCN(C(=O)Cn2cc(CCO)nn2)CC1` here?
**A.** Its Potency is inconclusive [activator, single point].

**Q.** With `CCOC(=O)[C@H]1[C@H]2COc3cc(OC)ccc3[C@@H]2N2C(=O)CN(Cc3ccco3)C(=O)[C@@]12C` as the compound, how does the Potency read?
**A.** The Potency was inconclusive [activator, full curve, poor fit].

**Q.** With `O=C(Nc1cccc(S(=O)(=O)C(F)F)c1)c1ccc(Cl)c(S(=O)(=O)N2CCOCC2)c1` as the compound, how does the Potency read?
**A.** Its Potency is inconclusive [activator, single point].

**Q.** Which Potency does the source give for `O=c1cc(N=Nc2ccc(Cl)cc2)[nH]c(=O)[nH]1` here?
**A.** Its Potency is active: 3.66 µM.

**Q.** For `CCNC(=S)NNC(=O)c1ccc2ncccc2c1`, which Potency is on record?
**A.** Its Potency is inconclusive [activator, single point].

**Q.** With `COc1ccc(C=CC(=O)c2ccc(OC)c(OC)c2O)cc1OC` as the compound, how does the Potency read?
**A.** Its Potency is inconclusive [activator, single point].

**Q.** For `Cc1ccc(-n2ncc3c(SCc4cccnc4)ncnc32)c(C)c1`, which “activity, positive = re-replication” value is on record?
**A.** Its value is inactive: 10.7%.

**Q.** For `CN(C)S(=O)(=O)N1CCN(c2ccc([N+](=O)[O-])c(NC3CC3)c2)CC1`, which “activity, positive = re-replication” value is on record?
**A.** The value was inactive: -0.0372%.

**Q.** For `O=C(CCc1ccc(S(=O)(=O)NC2CCCCC2)cc1)NCc1cccnc1`, which “activity, positive = re-replication” value is on record?
**A.** The value was inactive: -0.075%.

**Q.** With `CC1=C(C(=O)OCC2CCCO2)C(c2ccccc2Cl)NC(=O)N1` (stereo not given) as the compound, how does the “activity, positive = re-replication” value read?
**A.** Its value is inactive: -4.06%.

**Q.** Which Potency does the source give for `Fc1cccc(CCN2CCNC[C@H]2Cc2cccc3ccccc23)c1` here?
**A.** Its Potency is inconclusive [activator, single point].

**Q.** For `O=C(Cc1ccc(Cl)cc1)Nc1ccc(SC(F)F)cc1`, which Potency is on record?
**A.** Its Potency is inconclusive [activator, single point].

**Q.** For `CC(=O)c1ccccc1Oc1ncnc(N)c1[N+](=O)[O-]`, which “activity, positive = re-replication” value is on record?
**A.** Its value is inactive: -4.85%.

**Q.** For `CC(=O)c1ccc(S(=O)(=O)NC(=O)NC2CCCCC2)cc1`, which Potency is on record?
**A.** The Potency was inconclusive [activator, partial curve, poor fit].

**Q.** For `O=C(Nc1nc2cc(Cl)ccc2s1)C1CCCN(S(=O)(=O)c2cccc3cccnc23)C1` (stereo not given), which Potency is on record?
**A.** Its Potency is inconclusive [activator, single point].

**Q.** Which “activity, positive = re-replication” value does the source give for `CCn1c(SCC(=O)Nc2ccccc2N2CCCCC2)nc2c1c(=O)n(C)c(=O)n2C` here?
**A.** Its value is inactive: -2.55%.

**Q.** Which Potency does the source give for `CC1(C)CC(=O)c2c(nc(SCC(=O)Nc3nsc(-c4ccccc4)n3)c(C#N)c2-c2ccccc2)C1` here?
**A.** Its Potency is inconclusive [activator, full curve, poor fit].

**Q.** For `O=C(c1ccccc1)N(c1ccccc1)c1ccccc1O`, which “activity, positive = re-replication” value is on record?
**A.** The value was inactive: 22%.

**Q.** For `O=[N+]([O-])c1ccc(/C=N/Nc2nc(N3CCCCC3)nc(N3CCCCC3)n2)o1`, which “activity, positive = re-replication” value is on record?
**A.** Its value is inactive: 12.6%.

**Q.** For `CN(Cc1c(F)cccc1Cl)C(=O)CNC(=O)c1sc2ccccc2c1Cl`, which “activity, positive = re-replication” value is on record?
**A.** Its value is inactive: 16.6%.

**Q.** With `COc1cc(OC)cc(C(=O)NC(=S)N2CCCCCC2)c1` as the compound, how does the “activity, positive = re-replication” value read?
**A.** Its value is inactive: -3.67%.

**Q.** Which Potency does the source give for `CC(Sc1nnc(COc2ccc(Cl)cc2)n1-c1ccccc1)C(=O)O` (stereo not given) here?
**A.** Its Potency is inconclusive [activator, partial curve, poor fit].

**Q.** With `Cc1cccc(-c2nc(Nc3ccc(O)cc3)c3ccccc3n2)c1` as the compound, how does the Potency read?
**A.** The Potency was inconclusive [activator, single point].

**Q.** With `O=C(NCc1cccc(F)c1)c1cccc2c1C(=O)c1ccc(N3CCC(Cc4ccccc4)CC3)cc1S2(=O)=O` as the compound, how does the Potency read?
**A.** The Potency was active: 11.6 µM.

**Q.** With `CCCn1c(-c2cccnc2Cl)nc2cc(Cl)c(Cl)cc21` as the compound, how does the Potency read?
**A.** Its Potency is inconclusive [activator, single point].

**Q.** With `COc1ccc(NC2CCCN(C(=O)COc3ccc(Cl)cc3C)C2)cc1OC` (stereo not given) as the compound, how does the “activity, positive = re-replication” value read?
**A.** The value was inactive: 5.08%.

**Q.** For `Cc1nc2nc(SCC(=O)NCCCN3CCCCC3)nn2c(C)c1Cc1ccccc1`, which Potency is on record?
**A.** Its Potency is inconclusive [activator, single point].

**Q.** For `O=C1/C(=C/c2ccc(F)cc2)SC(=S)N1Nc1ncc(C(F)(F)F)cc1Cl`, which Potency is on record?
**A.** The Potency was active: 3.66 µM.

**Q.** Which “activity, positive = re-replication” value does the source give for `COC(=O)c1ccc(COc2cc(C)ccc2C)o1` here?
**A.** Its value is inactive: 0.355%.

**Q.** For `O=C(O)c1ccc(Cl)c(NC(=S)NC(=O)c2cccc(COc3ccccc3)c2)c1`, which Potency is on record?
**A.** Its Potency is active: 8.2 µM.

**Q.** Which Potency does the source give for `Cc1ccc(O)c(-c2cc(C(=O)Nc3cccnc3)[nH]n2)c1` here?
**A.** The Potency was inconclusive [activator, single point].

**Q.** For `O=C(O)CC(C(=O)Nc1cccc(C(F)(F)F)c1)C1CCCO1` (stereo not given), which Potency is on record?
**A.** The Potency was inconclusive [activator, partial curve, poor fit].

**Q.** Which “activity, positive = re-replication” value does the source give for `O=[N+]([O-])c1ccc(NCc2ccc(Cl)cc2)nc1` here?
**A.** The value was inactive: 4.31%.

**Q.** For `CCOC(=O)c1sc(N(Cc2ccccc2)C(=O)CCl)nc1C`, which Potency is on record?
**A.** Its Potency is inconclusive [activator, single point].
